± gives the standard deviation of the averaged measurements. In all, about 33,000 sequences were measured (“E-score (dimensionless, -0.5 to 0.5)”: median about -0.049, highest 2% from about 0.37 on). This is one part of the list.
These sequences were tested on T1, PmTbr T-box DNA-binding domain (GST fusion) (assay: PBM E-score of 8-mer (E-score (dimensionless, -0.5 to 0.5)); Tbr is Tbrain of the sea star Patiria miniata (Pm) or the sea urchin Strongylocentrotus purpuratus (Sp); higher = stronger binding preference; most listed sequences are background and not binding sites). Conditions: the construct has about 5 more residues each side.
T1 sequence: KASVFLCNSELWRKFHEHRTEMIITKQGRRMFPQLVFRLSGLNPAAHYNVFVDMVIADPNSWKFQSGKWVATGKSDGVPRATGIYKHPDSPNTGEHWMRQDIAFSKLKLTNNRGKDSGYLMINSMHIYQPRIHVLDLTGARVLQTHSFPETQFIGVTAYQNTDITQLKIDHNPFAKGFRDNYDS
In short: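 Primer extension turned Universal Agilent oligonucleotide arrays double-stranded. They were incubated with 200 nM protein in PBS (pH 7.5); the protein was a GST-fused Tbr T-box DNA-binding domain expressed in BL21 E. coli at 20 °C and purified on glutathione. Every ungapped 8-mer was scored from the scanned, quantified probe intensities, and the Universal PBM Analysis Suite gave each an enrichment E-score averaged over duplicate arrays.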

Sequence	PBM E-score of 8-mer
CAAAGCAC	-0.0972 ± 0.039
CTGTCTTC	0.0449 ± 0.021
ACTTCGGG	0.00498 ± 0.08
AAAGTCCC	0.0169 ± 0.079
GGGCTTGA	-0.144 ± 0.047
CCAATTGC	-0.162 ± 0.025
ACACAGGG	0.00615 ± 0.023
AACCTGAA	-0.213 ± 0.026
CATGGCAA	-0.103 ± 0.035
TGCTGTAA	-0.19 ± 0.066
TTCAACAA	-0.119 ± 0.028
CCAACTAG	-0.185 ± 0.048
GCCGAACA	0.0675 ± 0.049
AAATTATT	-0.0805 ± 0.082
CCCGAATA	-0.0811 ± 0.0034
AAGTAGAC	-0.175 ± 0.089
CATAGTGG	-0.118 ± 0.038
AGAAGCAG	-0.0631 ± 0.041
ACAAGGTG	0.429 ± 0.006
GACGAGGA	-0.155 ± 0.049
CTCTGGTA	-0.212 ± 0.015
AGCCGTGG	-0.211 ± 0.0058
AGATCGTC	-0.0551 ± 0.018
TATCGCGA	0.268 ± 0.018
ACCAACTG	0.0393 ± 0.03

Sequence	PBM E-score of 8-mer
AGGCCGAA	-0.397 ± 0.041
GACATTAC	-0.0499 ± 0.0013
ATGATGAA	-0.135 ± 0.028
GGCGATAA	0.276 ± 0.048
CACATCCC	0.274 ± 0.022
ATTTAGCC	-0.0804 ± 0.058
CCATTTAC	0.036 ± 0.01
AAAGAGGT	0.0797 ± 0.12
ACCACTAT	0.0796 ± 0.026
ACCCAGCG	-0.00227 ± 0.047
AAGGGATT	-0.212 ± 0.11
ACTGAGGA	-0.0989 ± 0.019
ATTTTGAA	-0.166 ± 0.0046
GACTCAAC	-0.0195 ± 0.05
AGCAGATA	-0.0773 ± 0.13
CTTGCATA	-0.244 ± 0.022
GATACAAC	0.113 ± 0.039
ATTTACGG	-0.2 ± 0.029
TGCATGAA	-0.0976 ± 0.016
CCACTAAC	0.193 ± 0.018
CACCGTCG	0.149 ± 0.059
ATTTATGC	-0.0403 ± 0.011
GACAAAAC	0.154 ± 0.024
CTAAGGAC	-0.199 ± 0.029
TTAAGTAA	-0.192 ± 0.069

Sequence	PBM E-score of 8-mer
AGTGTATG	0.00756 ± 0.013
AGGCGTCA	0.4194 ± 0.0035
ACGCTTAG	0.119 ± 0.025
AGACTACA	-0.0628 ± 0.016
AATCGTCT	-0.0341 ± 0.11
CAGGTTCG	0.0766 ± 0.033
ATTCCGAG	-0.12 ± 0.018
AAGCATTC	-0.174 ± 0.068
CGGGGACC	-0.37 ± 0.02
CCAGCTCG	0.104 ± 0.017
TCATACAA	0.0525 ± 0.0095
ATATTCTG	-0.0441 ± 0.026
CTATTGAA	-0.141 ± 0.082
CGGAGGCC	-0.336 ± 0.016
CACTGGCA	0.109 ± 0.026
AATACGTC	-0.103 ± 0.026
CTTACGCA	0.0162 ± 0.046
CTAAGGTA	-0.0874 ± 0.013
ATTAGCGA	0.232 ± 0.018
ATTACATC	-0.131 ± 0.028
ACTTGTCC	0.094 ± 0.023
AGATAAGG	-0.0769 ± 0.012
TAGTGACA	0.398 ± 0.0059
GGTAGCTA	-0.302 ± 0.092
AGGTATAT	0.00539 ± 0.024

Sequence	PBM E-score of 8-mer
ACAAGCCT	0.0219 ± 0.054
GTCTGCAA	0.0447 ± 0.062
AGGGGATC	-0.132 ± 0.026
ATTGTCAG	0.134 ± 0.026
AGCGACCC	-0.176 ± 0.15
ACTGTACC	-0.155 ± 0.017
GAGAGACA	-0.00238 ± 0.044
CGTAATCC	-0.218 ± 0.03
AGCCGCAG	-0.155 ± 0.1
GACGAATA	0.0699 ± 0.023
CGTACAGA	-0.26 ± 0.075
AAGGAATG	-0.109 ± 0.08
ATCTTCAA	-0.234 ± 0.059
AATATGAG	-0.12 ± 0.0047
ATCTAGCC	-0.193 ± 0.013
ACATTGAA	-0.122 ± 0.013
CAGACTCG	-0.159 ± 0.062
ACACGCTC	0.135 ± 0.053
GGGGCGCA	-0.273 ± 0.015
CTTGCCGA	0.128 ± 0.0035
ATTAGCTC	-0.00311 ± 0.0071
CCGCACCG	0.136 ± 0.028
ATAACCTA	-0.148 ± 0.12
ACCTCAGC	0.201 ± 0.017
AGGGCATG	-0.148 ± 0.028

Sequence	PBM E-score of 8-mer
AGCCTACA	-0.0331 ± 0.081
ACCGTGAA	0.207 ± 0.017
CACTCGCC	0.146 ± 0.014
GGGCCTGA	-0.27 ± 0.045
CCGGTACA	-0.00601 ± 0.0053
CAACAGCC	-0.0907 ± 0.016
CACGAAGA	-0.123 ± 0.0026
ATGTCATC	-0.0845 ± 0.035
ACAGGTGC	0.4412 ± 0.0022
ACGTAGTA	-0.242 ± 0.018
ACGGGCGA	0.144 ± 0.054
AGTGCCAG	0.2664 ± 0.0016
ACTGATGG	0.0102 ± 0.053
GTCTCACA	0.392 ± 0.019
AGAGGGGA	-0.146 ± 0.012
AACCGGCG	-0.0858 ± 0.12
GATTGGAA	-0.225 ± 0.0081
AAGTCATA	-0.0653 ± 0.022
GATACTAA	-0.0565 ± 0.068
ACGCAAGA	-0.0593 ± 0.01
GCAACCGC	0.0279 ± 0.085
ATGGAAAG	0.0338 ± 0.0075
ACAGGTTG	0.234 ± 0.042
CCGTTTCA	-0.0032 ± 0.017
CAGTGTCA	0.31 ± 0.017

Sequence	PBM E-score of 8-mer
CCACGCTA	-0.0567 ± 0.028
CTCTACGA	-0.185 ± 0.035
AGCCTCCG	-0.347 ± 0.069
TACATAGA	-0.22 ± 0.058
CGCGGAAA	0.0616 ± 0.025
CAGCGACA	0.233 ± 0.019
GAAACACA	0.157 ± 0.028
GACCCATC	-0.173 ± 0.076
CATTTCGG	-0.0642 ± 0.055
CTGCTGCA	0.00121 ± 0.022
CGCAGAAC	-0.108 ± 0.059
AGTTTGAC	0.156 ± 0.044
ATCAAGAC	0.0515 ± 0.066
ACGGATAA	-0.1012 ± 0.00099
CCACTTCC	0.0762 ± 0.022
AGTCCTGG	-0.259 ± 0.064
CGCATCTC	0.0415 ± 0.027
AGCACTCG	0.103 ± 0.014
AACTTTGA	-0.167 ± 0.041
AGGAAAGA	-0.051 ± 0.033
ACCCGTCG	0.276 ± 0.021
TCCTCGCA	0.319 ± 0.0054
CAAAGATG	-0.0619 ± 0.041
CCATCCTC	-0.158 ± 0.11
CGAGGGCG	0.181 ± 0.02

Sequence	PBM E-score of 8-mer
ACACAGAC	0.0304 ± 0.021
AGGTTAAA	-0.3161 ± 0.0025
ATATATGG	-0.288 ± 0.057
ACCATATC	-0.0122 ± 0.049
CAGCTTGA	-0.0992 ± 0.0015
AGTCTAAG	-0.369 ± 0.019
ATTCTCAA	0.115 ± 0.051
GCAGTTCC	-0.0984 ± 0.0049
AGTACATA	-0.197 ± 0.053
ACTCAGTG	-0.0184 ± 0.018
CCTCGTCA	0.256 ± 0.069
CTAGTTGA	-0.0529 ± 0.016
CCCTGTAA	0.166 ± 0.038
AAAAAGCT	-0.0814 ± 0.012
CTCACTAC	0.0944 ± 0.039
AATTAGAG	-0.268 ± 0.0049
TATGCAAA	-0.152 ± 0.035
GGCCGACC	-0.27 ± 0.011
AGAATATA	-0.123 ± 0.027
AACGGGCA	-0.0173 ± 0.043
AATGCATC	0.0233 ± 0.047
AAATGCTA	-0.128 ± 0.052

Source: the supplement of paper PMC4166925
